The record followed here is the supplement of paper PMC4604168 (melanoma cell lines).

This is one part of the list. Repeats are few or missing, and single values can be far off.
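Also: cell number obtained by counting DAPI-stained nuclei in high-throughput microscope images with image analysis software, screen run in 1,536-well plates.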

This assay has as its system IPC-298. In words: cell count relative to DMSO control; melanoma cells; higher = more viable cells. As to conditions: library dose: low library concentration; 72 h.
`CCN(CC)CCNC(=O)c1c(C)[nH]c(/C=C2\C(=O)Nc3ccc(F)cc32)c1C` [sunitinib] + Cn1c(Nc2ccc(C(F)(F)F)cc2)nc2cc(Oc3ccnc(-c4ncc(C(F)(F)F)[nH]4)c3)ccc21 [CHIR265] (first compound 0.4 µM, partner dose 0.08 µM) gave a cell count of 63.9%. As for `CCN(CC)CCNC(=O)c1c(C)[nH]c(/C=C2\C(=O)Nc3ccc(F)cc32)c1C` [sunitinib] + CNC(=O)c1cc(Oc2ccc(NC(=O)Nc3ccc(Cl)c(C(F)(F)F)c3)cc2)ccn1 [sorafenib] (first compound 0.4 µM, partner dose 0.4 µM), the figure is 88.6%; as for `C[C@]1(O)C[C@@H](c2nc(-c3ccc4ccc(-c5ccccc5)nc4c3)c3c(N)nccn32)C1` + C=C(c1ccc(C(=O)O)cc1)c1cc2c(cc1C)C(C)(C)CCC2(C)C [Bexarotene] (first compound 0.4 µM, partner dose 2 µM), 91.1%; as for `CCN(CC)CCNC(=O)c1c(C)[nH]c(/C=C2\C(=O)Nc3ccc(F)cc32)c1C` [sunitinib] + CN(c1ncccc1CNc1nc(Nc2ccc3c(c2)CC(=O)N3)ncc1C(F)(F)F)S(C)(=O)=O [PF562271] (first compound 0.4 µM, partner dose 0.08 µM), 91.1%. As for `CCN(CC)CCNC(=O)c1c(C)[nH]c(/C=C2\C(=O)Nc3ccc(F)cc32)c1C` [sunitinib] + NC1(c2ccc(-c3nc4ccn5c(=O)[nH]nc5c4cc3-c3ccccc3)cc2)CCC1 [MK2206] (first compound 0.4 µM, partner dose 0.4 µM), the figure is 92.2%.

Molecule `Cn1cnc2c(F)c(Nc3ccc(Br)cc3Cl)c(C(=O)NOCCO)cc21` [selumetinib] + CNC(=O)c1cc(Oc2ccc(NC(=O)Nc3ccc(Cl)c(C(F)(F)F)c3)cc2)ccn1 [sorafenib] (first compound 0.015 µM, partner dose 0.4 µM) came in with a cell count of 91.6%. As for `Cn1cnc2c(F)c(Nc3ccc(Br)cc3Cl)c(C(=O)NOCCO)cc21` [selumetinib] + Cc1cc(Nc2cc(N3CCN(C)CC3)nc(/C=C/c3ccccc3)n2)n[nH]1 [ENMD2076] (first compound 0.015 µM, partner dose 0.04 µM), the figure is 64.1%. As for `COc1cc([C@@H]2c3cc4c(cc3[C@@H](O[C@@H]3O[C@@H]5CO[C@@H](C)O[C@H]5[C@H](O)[C@H]3O)[C@H]3COC(=O)[C@H]23)OCO4)cc(OC)c1O` [etoposide] + Nc1nc(F)nc2c1ncn2[C@@H]1O[C@H](CO)[C@@H](O)[C@@H]1O [fludarabine] (first compound 0.02 µM, partner dose 0.2 µM), the figure is 92.1%; as for `COc1cc([C@@H]2c3cc4c(cc3[C@@H](O[C@@H]3O[C@@H]5CO[C@@H](C)O[C@H]5[C@H](O)[C@H]3O)[C@H]3COC(=O)[C@H]23)OCO4)cc(OC)c1O` [etoposide] + Cn1sc(=O)n(Cc2ccccc2)c1=O [TDZD-8] (first compound 0.02 µM, partner dose 0.4 µM), 91.6%. In the case of `Cn1cnc2c(F)c(Nc3ccc(Br)cc3Cl)c(C(=O)NOCCO)cc21` [selumetinib] + CO[C@H]1C[C@@H]2CC[C@@H](C)[C@@](O)(O2)C(=O)C(=O)N2CCCC[C@H]2C(=O)O[C@H]([C@H](C)C[C@@H]2CC[C@@H](OCCO)[C@H](OC)C2)CC(=O)[C@H](C)/C=C(\C)[C@@H](O)[C@@H](OC)C(=O)[C@H](C)C[C@H](C)/C=C/C=C/C=C/1C [everolimus] (first compound 0.015 µM, partner dose 0.02 µM), the cell count was 56%.

Molecule `Cn1cnc2c(F)c(Nc3ccc(Br)cc3Cl)c(C(=O)NOCCO)cc21` [selumetinib] + COc1ccc(C2=N[C@@H](c3ccc(Cl)cc3)[C@@H](c3ccc(Cl)cc3)N2C(=O)N2CCNC(=O)C2)c(OC(C)C)c1 [Nutlin-3] (first compound 0.015 µM, partner dose 0.1 µM) showed a cell count of 63.1%.

In turn, `C[C@]1(O)C[C@@H](c2nc(-c3ccc4ccc(-c5ccccc5)nc4c3)c3c(N)nccn32)C1` + CN(c1ncccc1CNc1nc(Nc2ccc3c(c2)CC(=O)N3)ncc1C(F)(F)F)S(C)(=O)=O [PF562271] (first compound 0.4 µM, partner dose 0.08 µM) registered a cell count of 91.6%. As for `CCN(CC)CCNC(=O)c1c(C)[nH]c(/C=C2\C(=O)Nc3ccc(F)cc32)c1C` [sunitinib] + CC(=O)c1c(C)c2cnc(Nc3ccc(N4CCNCC4)cn3)nc2n(C2CCCC2)c1=O [palbociclib] (first compound 0.4 µM, partner dose 0.04 µM), the figure is 83%. As for `C[C@]1(O)C[C@@H](c2nc(-c3ccc4ccc(-c5ccccc5)nc4c3)c3c(N)nccn32)C1` + CNC(=O)c1cc(Oc2ccc(NC(=O)Nc3ccc(Cl)c(C(F)(F)F)c3)cc2)ccn1 [sorafenib] (first compound 0.4 µM, partner dose 0.4 µM), the figure is 82.1%; as for `Cn1cnc2c(F)c(Nc3ccc(Br)cc3Cl)c(C(=O)NOCCO)cc21` [selumetinib] + COc1ccc(Cl)c(Nc2nc3ccccc3nc2NS(=O)(=O)c2cccc(NC(=O)C(C)(C)N)c2)c1 [XL147] (first compound 0.015 µM, partner dose 0.8 µM), 63.2%.

Molecule `Cn1cnc2c(F)c(Nc3ccc(Br)cc3Cl)c(C(=O)NOCCO)cc21` [selumetinib] + CN(c1ncccc1CNc1nc(Nc2ccc3c(c2)CC(=O)N3)ncc1C(F)(F)F)S(C)(=O)=O [PF562271] (first compound 0.015 µM, partner dose 0.08 µM) displayed a cell count of 61.6%.

`C[C@]1(O)C[C@@H](c2nc(-c3ccc4ccc(-c5ccccc5)nc4c3)c3c(N)nccn32)C1` + CCCCCCCCc1ccc(CCC(N)(CO)CO)cc1 [fingolimod] (first compound 0.4 µM, partner dose 2 µM) showed a cell count of 92%. As for `Cn1cnc2c(F)c(Nc3ccc(Br)cc3Cl)c(C(=O)NOCCO)cc21` [selumetinib] + CCCCCCCCc1ccc(CCC(N)(CO)CO)cc1 [fingolimod] (first compound 0.015 µM, partner dose 2 µM), the figure is 63.2%.

The molecule `CCN(CC)CCNC(=O)c1c(C)[nH]c(/C=C2\C(=O)Nc3ccc(F)cc32)c1C` [sunitinib] + CN1CCN(c2ccc3nc(-c4c(N)c5c(F)cccc5[nH]c4=O)[nH]c3c2)CC1 [Dovitinib] (first compound 0.4 µM, partner dose 0.1 µM) gave a cell count of 84.3%. As for `Cn1cnc2c(F)c(Nc3ccc(Br)cc3Cl)c(C(=O)NOCCO)cc21` [selumetinib] + Cn1c(Nc2ccc(C(F)(F)F)cc2)nc2cc(Oc3ccnc(-c4ncc(C(F)(F)F)[nH]4)c3)ccc21 [CHIR265] (first compound 0.015 µM, partner dose 0.08 µM), the figure is 53.1%; as for `COc1cc([C@@H]2c3cc4c(cc3[C@@H](O[C@@H]3O[C@@H]5CO[C@@H](C)O[C@H]5[C@H](O)[C@H]3O)[C@H]3COC(=O)[C@H]23)OCO4)cc(OC)c1O` [etoposide] + O=C(Nc1cc(C(F)(F)F)cc(C(F)(F)F)c1)c1cc(Cl)ccc1O [IMD0354] (first compound 0.02 µM, partner dose 0.016 µM), 93.2%. As for `CCN(CC)CCNC(=O)c1c(C)[nH]c(/C=C2\C(=O)Nc3ccc(F)cc32)c1C` [sunitinib] + CC(=O)O[C@@]12CO[C@@H]1C[C@H](O)[C@@]1(C)C(=O)[C@H](O)C3=C(C)[C@@H](OC(=O)[C@H](O)[C@@H](NC(=O)OC(C)(C)C)c4ccccc4)C[C@@](O)([C@@H](OC(=O)c4ccccc4)[C@H]21)C3(C)C [Docetaxel] (first compound 0.4 µM, partner dose 0.0001 µM), the figure is 64.9%; as for `C[C@]1(O)C[C@@H](c2nc(-c3ccc4ccc(-c5ccccc5)nc4c3)c3c(N)nccn32)C1` + CN1CCN(c2ccc3nc(-c4c(N)c5c(F)cccc5[nH]c4=O)[nH]c3c2)CC1 [Dovitinib] (first compound 0.4 µM, partner dose 0.1 µM), 90.7%; as for `C[C@]1(O)C[C@@H](c2nc(-c3ccc4ccc(-c5ccccc5)nc4c3)c3c(N)nccn32)C1` + CC(C)C[C@H](NC(=O)[C@H](Cc1ccccc1)NC(=O)c1cnccn1)B(O)O [Bortezomib] (first compound 0.4 µM, partner dose 0.001 µM), 90%.
